Measurements reported in PubChem BioAssay AID485294 (National Center for Advancing Translational Sciences (NCATS), 2010).
In all, about 370,000 compounds went through this assay and about 150 (0.041%) were called active. This list was built around the results that the source calls inconclusive (neither active nor inactive); the mix of calls is not that of the screen. Calls follow the shape of the dose curve; as a rule, active = well fitted inhibition curve with a large enough effect; inconclusive = small, poorly fitted or top-dose-only effect; inactive = flat fitted curve, though single readings scatter. No potency is given beside an inconclusive call; the fits are too rough.
Also: nearly all actives have a fitted effect of over 25% in size.
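For activity change, negative = inhibition in this document: 0% = no-compound wells and -100% = no-enzyme wells.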
Potency is read from the fitted curve at half-maximal effect; tags tell the direction and shape of the fitted curve.

Each compound was assayed against Beta-lactamase (Escherichia coli (strain K12)) (UniProt P00811) (assay: qHTS Inhibitors of AmpC Beta-Lactamase (assay with detergent)). Conditions: AmpC hydrolysis of nitrocefin, absorbance 480 nm, 0.01% Triton; activity change, negative = inhibition: at 114 µM (top of the series).
Chain of UniProt P00811 (P00811 whole entry, looked up): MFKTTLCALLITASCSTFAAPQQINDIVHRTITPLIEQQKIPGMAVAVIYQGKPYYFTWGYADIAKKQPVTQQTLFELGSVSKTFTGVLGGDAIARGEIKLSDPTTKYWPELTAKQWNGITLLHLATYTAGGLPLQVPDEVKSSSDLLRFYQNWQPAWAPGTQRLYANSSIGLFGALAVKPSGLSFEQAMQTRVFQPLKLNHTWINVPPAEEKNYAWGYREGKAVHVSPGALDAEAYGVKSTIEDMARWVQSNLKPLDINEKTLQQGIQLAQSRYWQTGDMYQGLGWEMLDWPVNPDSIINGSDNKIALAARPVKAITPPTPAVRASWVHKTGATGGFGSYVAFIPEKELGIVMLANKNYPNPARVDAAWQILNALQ
Method in brief: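 AmpC (5.3 nM in the dispensed reagent) in 20 mM phosphate pH 7.0 with 0.01% (detergent screen) or 0.0001% Triton X-100 was preincubated with compounds for 15 min at room temperature. Nitrocefin was then added from an 800 uM solution, and hydrolysis was followed at 480 nm.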
For `CC1CN(C(=O)CN2C(=O)c3ccccc3S2(=O)=O)CC(C)O1` (stereo not drawn), the Potency was inconclusive [inhibitor, single point]. `O=c1c2ccccc2[nH]c(=S)n1CCc1ccccc1` was tested, and the Potency was inconclusive [inhibitor, partial curve]. In the case of `Cn1cccc1/C=C1\CCc2ccccc2C1=O`, the Potency is reported as inconclusive [inhibitor, single point]. With `CCc1[nH]c(=O)c(C#N)c2c1CSC(C)(C)C2` the “activity change, negative = inhibition” value was inactive: -7.37%. With `Cc1cc(Br)ccc1NC(=O)CN1C(=O)C2CC=CCC2C1=O` (stereo not drawn) the “activity change, negative = inhibition” value was inactive: -9.75%. In the case of `O=c1[nH]ncc(NCCc2ccccc2)c1Cl`, the “activity change, negative = inhibition” value is reported as inactive: 3.89%. For `CCCCNC(=O)Nc1ccon1`, the Potency was inconclusive [inhibitor, full curve]. In the case of `O=C(CSc1nnc2ccc(-c3ccncc3)nn12)N1CCCCC1`, the Potency is reported as inconclusive [inhibitor, partial curve, poor fit]. In the case of `CCc1nc2sc3c(c2c(=O)o1)CCCC3`, the Potency is reported as inconclusive [inhibitor, partial curve, poor fit]. With `COc1ccc(-c2noc(N3CCCC(C(=O)Nc4ccc(F)cc4F)C3)n2)cc1` (stereo not drawn) the “activity change, negative = inhibition” value was inactive: -6.37%. `COc1ccc(NS(=O)(=O)c2c(C)n(C)c(=O)n(C)c2=O)cc1OC` was tested, and the Potency was inconclusive [inhibitor, partial curve]. For `COc1ccc(CCN2C(=O)c3cccnc3C2=O)cc1OC`, the Potency was inconclusive [inhibitor, partial curve]. In the case of `COc1ccc(-c2coc3cc(OC4OC(CO)C(O)C(O)C4O)ccc3c2=O)cc1` (stereo not drawn), the “activity change, negative = inhibition” value is reported as inactive: 4.05%. In the case of `Cc1csc(NC(=O)c2ccc3c(=O)n4c(nc3c2)CCCCC4)n1`, the “activity change, negative = inhibition” value is reported as inactive: -2.68%. With `Cc1ccc(SCc2cc(=O)[nH]c(N3CCN(C)CC3)n2)cc1` the Potency was inconclusive [inhibitor, full curve, poor fit]. For `Cc1csc(SCC(=O)O)n1`, the Potency was inconclusive [inhibitor, partial curve]. In the case of `c1ccc2c(c1)ncn2CCCOc1ccc2c(c1)CCC2`, the “activity change, negative = inhibition” value is reported as inactive: -6.94%. For `CCOC(=O)c1cc(OC(=O)c2ccc(Cl)cc2)n(-c2ccccc2)n1`, the “activity change, negative = inhibition” value was inactive: -11.4%. `CC(C)N(C(=O)CN1CCN(C(=O)C2COc3ccccc3O2)CC1)C(C)C` (stereo not drawn) was tested, and the Potency was inconclusive [inhibitor, full curve, poor fit]. For `COc1ccc(OC)c(NC(=O)COC(=O)c2ccc(-n3cnnn3)cc2)c1`, the Potency was inconclusive [inhibitor, partial curve, poor fit]. `COC(=O)c1ccc(C23CC4(C2)[C@H](CN(C)[C@@H]4c2ccccc2)C3c2ccc(C(F)(F)F)cc2)cc1` (stereo partly drawn) was tested, and the “activity change, negative = inhibition” value was inactive: -4.14%. In the case of `CCCCCCC(N)CC(=O)O` (stereo not drawn), the Potency is reported as inconclusive [inhibitor, single point]. For `Cc1ccccc1NC(=O)CCn1c(=O)oc2ccccc21`, the Potency was inconclusive [inhibitor, full curve]. In the case of `COc1ccc(S(=O)(=O)N(C)CC(=O)NC2CC2)cc1OC`, the Potency is reported as inconclusive [inhibitor, full curve]. In the case of `CCOc1ccc(OCCC(=O)OCC(=O)NC2CCCCC2)cc1`, the Potency is reported as inconclusive [inhibitor, full curve]. `Cc1c(NC(=O)c2ccc(N(C)S(C)(=O)=O)cc2)c(=O)n(-c2ccccc2)n1C` was tested, and the Potency was inconclusive [inhibitor, partial curve]. In the case of `CCCCn1cnc2c(oc3nc4c(cc32)CCCC4)c1=O`, the “activity change, negative = inhibition” value is reported as inactive: 0.916%. `COc1ccc(C)cc1NC(=O)Cn1cnnn1` was tested, and the Potency was inconclusive [inhibitor, single point]. For `O=C(NCCOc1ccccc1)c1cncc(Br)c1`, the “activity change, negative = inhibition” value was inactive: -3.6%. For `CCC(=O)NCCc1nc2cc(NC(=O)c3ccc(OC)cc3)ccc2n1C`, the “activity change, negative = inhibition” value was inactive: -8.61%. In the case of `CCCN(C(=O)c1cccc(S(=O)(=O)N2CCN(C)CC2)c1)c1c(N)n(Cc2ccccc2)c(=O)[nH]c1=O`, the “activity change, negative = inhibition” value is reported as inactive: -17.2%. `Cc1ccc(C)c(S(=O)(=O)NCC(c2ccco2)S(=O)(=O)c2ccc(F)cc2)c1` (stereo not drawn) was tested, and the “activity change, negative = inhibition” value was inactive: 12.5%. For `COc1cc(C2NC(=O)N(C)C(C)=C2C(=O)OCc2ccccc2)cc(Br)c1O` (stereo not drawn), the Potency was inconclusive [inhibitor, partial curve, poor fit]. In the case of `CN1CCC(NC(=S)Nc2cccc([N+](=O)[O-])c2)CC1`, the Potency is reported as inconclusive [inhibitor, single point]. For `NS(=O)(=O)c1ccc(N/N=C2/CCCCC2C2CCCCC2)c([N+](=O)[O-])c1` (stereo not drawn), the “activity change, negative = inhibition” value was inactive: -8.3%. For `COc1ccc(Nc2cc(Nc3cc(OC)c(OC)c(OC)c3)ncn2)cc1`, the “activity change, negative = inhibition” value was inactive: 2.63%. For `O=S(=O)(c1cccs1)N1CCN(C/C=C/c2ccccc2)CC1`, the Potency was inconclusive [inhibitor, full curve, poor fit]. With `O=S(=O)(Nc1cc(Cl)ccc1N1CCCCC1)c1cccs1` the Potency was inconclusive [inhibitor, full curve, poor fit]. In the case of `O=C1C(C=Nc2ccc(F)cc2)=C(O)c2ccccc21`, the “activity change, negative = inhibition” value is reported as inactive: 8.93%. For `CCOC(=O)c1cc(C(=O)OCC)cc(-n2c(C)cc(C(=O)CN3CCOCC3)c2C)c1`, the Potency was inconclusive [inhibitor, full curve, poor fit]. `Cc1cc(C)cc(-n2c(SCC(=O)Nc3nnc(C)s3)nc3c([nH]c4ccccc43)c2=O)c1` was tested, and the “activity change, negative = inhibition” value was inactive: -3.01%. For `COc1cc2nc(SCC(N)=O)n(CCC3=CCCCC3)c(=O)c2cc1OC`, the Potency was inconclusive [inhibitor, full curve, poor fit]. In the case of `CCOC(=O)c1ccc(NC(=O)NCCN2CCCCC2)cc1`, the Potency is reported as inconclusive [inhibitor, full curve]. In the case of `CC1CCN(c2ccc(NC(=S)NC(=O)c3ccco3)cc2)CC1`, the “activity change, negative = inhibition” value is reported as inactive: -4.17%. With `COc1ccc(CC(=O)N(C)C2CCCN(Cc3ccccc3F)C2)cc1OC` (stereo not drawn) the Potency was inconclusive [inhibitor, full curve]. In the case of `CCN(c1ccccc1)S(=O)(=O)c1cc(NC(=O)COC(=O)C2CC2)ccc1Cl`, the “activity change, negative = inhibition” value is reported as inactive: 1.19%. In the case of `CCN(CC)C(=O)CSc1nc2ccccc2c(=O)n1CC`, the “activity change, negative = inhibition” value is reported as inactive: 0.12%. With `CC(=O)c1ccc(N2CCN(S(=O)(=O)c3ccc4c(c3)CC(=O)N4)CC2)cc1` the Potency was inconclusive [inhibitor, full curve, poor fit].
